B1: SI-51E4 (other)
heavy: DVVMTQSPSTLSASVGDRVTINCQASESISSWLAWYQQKPGKAPKLLIYEASKLASGVPSRFSGSGSGTEFTLTISSLQPDDFATYYCQGYFYFISRTYVNSFGCGTKVEIKGGGGSGGGGSGGGGSGGGGSEVQLVESGGGLVQPGGSLRLSCAASGFTISTNAMSWVRQAPGKCLEWIGVITGRDITYYASWAKGRFTISRDNSKNTLYLQMNSLRAEDTAVYYCARDGGSSAITSNNIWGQGTLVTVSTGGGGSGGGGSQVQLQQPGAELVRPGASVKLSCKASGYTFTSYWINWVKQRPGQGLEWIGNIYPSDSYTNYNQKFKDKATLTVDKSSSTAYMQLSSPTSEDSAVYYCTRSWRGNSFDYWGQGTTLTVSSASTKGPSVFPLAPSSKSTSGGTAALGCLVKDYFPEPVTVSWNSGALTSGVHTFPAVLQSSGLYSLSSVVTVPSSSLGTQTYICNVNHKPSNTKVDKRV[human IgG1 Fc with L234A L235A N297A K322A (EU numbers) cut from this listing]GGGGSGGGGSEVQLLESGGGLVQPGGSLRLSCAASGFSFSSGYDMCWVRQAPGKCLEWIACIAAGSAGITYDANWAKGRFTISRDNSKNTLYLQMNSLRAEDTAVYYCARSAFSFDYAMDLWGQGTLVTVSSGGGGSGGGGSGGGGSGGGGSDIQMTQSPSTLSASVGDRVTITCQASQSISSHLNWYQQKPGKAPKLLIYKASTLASGVPSRFSGSGSGTEFTLTISSLQPDDFATYYCQQGYSWGNVDNVFGCGTKVEIKGGGGSGGGGSGRSLVESGGGLVQPGGSLRLSCTASGFTISSYHMQWVRQAPGKCLEYIGTISSGGNVYYASSARGRFTISRPSSKNTVDLQMNSLRAEDTAVYYCARDSGYSDPMWGQGTLVTVSSGGGGSGGGGSGGGGSGGGGSDVVMTQSPSSVSASVGDRVTITCQASQNIRTYLSWYQQKPGKAPKLLIYAAANLASGVPSRFSGSGSGTDFTLTISDLEPGDAATYYCQSTYLGTDYVGGAFGCGTKVEIK
light: DIVMTQSPSSLTVTAGEKVTMSCKSSQSLLNSGNQKNYLTWYQQKPGQPPKLLIYWASTRESGVPDRFTGSGSGTDFTLTISSVQAEDLAVYYCQNDYSYPFTFGSGTKLEIKRTVAAPSVFIFPPSDEQLKSGTASVVCLLNNFYPREAKVQWKVDNALQSGNSQESVTEQDSKDSTYSLSSTLTLSKADYEKHKVYACEVTHQGLSSPVTKSFNRGEC
B2: SI-55E1 (other)
heavy: DVVMTQSPSTLSASVGDRVTINCQASESISSWLAWYQQKPGKAPKLLIYEASKLASGVPSRFSGSGSGTEFTLTISSLQPDDFATYYCQGYFYFISRTYVNSFGGGTKVEIKGGGGSGGGGSGGGGSGGGGSEVQLVESGGGLVQPGGSLRLSCAASGFTISTNAMSWVRQAPGKGLEWIGVITGRDITYYASWAKGRFTISRDNSKNTLYLQMNSLRAEDTAVYYCARDGGSSAITSNNIWGQGTLVTVSTGGGGSGGGGSQVQLQQSGAEVKKPGSSVKVSCKASGYTFTNYYIYWVRQAPGQGLEWIGGINPTSGGSNFNEKFKTRVTITADESSTTAYMELSSLRSEDTAFYFCTRQGLWFDSDGRGFDFWGQGTTVTVSSASTKGPSVFPLAPSSKSTSGGTAALGCLVKDYFPEPVTVSWNSGALTSGVHTFPAVLQSSGLYSLSSVVTVPSSSLGTQTYICNVNHKPSNTKVDKRV[human IgG1 Fc with changes cut from this listing]GGGGSGGGGSEVQLLESGGGLVQPGGSLRLSCAASGFSFSSGYDMCWVRQAPGKGLEWIACIAAGSAGITYDANWAKGRFTISRDNSKNTLYLQMNSLRAEDTAVYYCARSAFSFDYAMDLWGQGTLVTVSSGGGGSGGGGSGGGGSGGGGSDIQMTQSPSTLSASVGDRVTITCQASQSISSHLNWYQQKPGKAPKLLIYKASTLASGVPSRFSGSGSGTEFTLTISSLQPDDFATYYCQQGYSWGNVDNVFGGGTKVEIKGGGGSGGGGSGRSLVESGGGLVQPGGSLRLSCTASGFTISSYHMQWVRQAPGKGLEYIGTISSGGNVYYASSARGRFTISRPSSKNTVDLQMNSLRAEDTAVYYCARDSGYSDPMWGQGTLVTVSSGGGGSGGGGSGGGGSGGGGSDVVMTQSPSSVSASVGDRVTITCQASQNIRTYLSWYQQKPGKAPKLLIYAAANLASGVPSRFSGSGSGTDFTLTISDLEPGDAATYYCQSTYLGTDYVGGAFGGGTKVEIK
light: DIQMTQSPSSLSASVGDRVTITCRSSQNIVHSNGNTYLDWYQQTPGKAPKLLIYKVSNRFSGVPSRFSGSGSGTDFTFTISSLQPEDIATYYCFQYSHVPWTFGQGTKLQITRTVAAPSVFIFPPSDEQLKSGTASVVCLLNNFYPREAKVQWKVDNALQSGNSQESVTEQDSKDSTYSLSSTLTLSKADYEKHKVYACEVTHQGLSSPVTKSFNRGEC
B3: SI-55E2 (other)
heavy: DVVMTQSPSTLSASVGDRVTINCQASESISSWLAWYQQKPGKAPKLLIYEASKLASGVPSRFSGSGSGTEFTLTISSLQPDDFATYYCQGYFYFISRTYVNSFGGGTKVEIKGGGGSGGGGSGGGGSGGGGSEVQLVESGGGLVQPGGSLRLSCAASGFTISTNAMSWVRQAPGKGLEWIGVITGRDITYYASWAKGRFTISRDNSKNTLYLQMNSLRAEDTAVYYCARDGGSSAITSNNIWGQGTLVTVSTGGGGSGGGGSEVQLVQSGAEVKKPGASVKVSCKASGYRFTNYWIHWVRQAPGQGLEWIGGINPGNNYATYRRKFQGRVTMTADTSTSTVYMELSSLRSEDTAVYYCTREGYGNYGAWFAYWGQGTLVTVSSASTKGPSVFPLAPSSKSTSGGTAALGCLVKDYFPEPVTVSWNSGALTSGVHTFPAVLQSSGLYSLSSVVTVPSSSLGTQTYICNVNHKPSNTKVDKRV[human IgG1 Fc with changes cut from this listing]GGGGSGGGGSEVQLLESGGGLVQPGGSLRLSCAASGFSFSSGYDMCWVRQAPGKGLEWIACIAAGSAGITYDANWAKGRFTISRDNSKNTLYLQMNSLRAEDTAVYYCARSAFSFDYAMDLWGQGTLVTVSSGGGGSGGGGSGGGGSGGGGSDIQMTQSPSTLSASVGDRVTITCQASQSISSHLNWYQQKPGKAPKLLIYKASTLASGVPSRFSGSGSGTEFTLTISSLQPDDFATYYCQQGYSWGNVDNVFGGGTKVEIKGGGGSGGGGSGRSLVESGGGLVQPGGSLRLSCTASGFTISSYHMQWVRQAPGKGLEYIGTISSGGNVYYASSARGRFTISRPSSKNTVDLQMNSLRAEDTAVYYCARDSGYSDPMWGQGTLVTVSSGGGGSGGGGSGGGGSGGGGSDVVMTQSPSSVSASVGDRVTITCQASQNIRTYLSWYQQKPGKAPKLLIYAAANLASGVPSRFSGSGSGTDFTLTISDLEPGDAATYYCQSTYLGTDYVGGAFGGGTKVEIK
light: DVQVTQSPSSLSASVGDRVTITCRSSQSLANSYGNTFLSWYLHKPGKAPQLLIYGISNRFSGVPDRFSGSGSGTDFTLTISSLQPEDFATYYCLQGTHQPYTFGQGTKVEIKRTVAAPSVFIFPPSDEQLKSGTASVVCLLNNFYPREAKVQWKVDNALQSGNSQESVTEQDSKDSTYSLSSTLTLSKADYEKHKVYACEVTHQGLSSPVTKSFNRGEC

How the values were obtained:
Experiment in all cases: cell-based or functional assay
[1] = biological target: mesothelin on MDA-MB-231 cells (UniProt Q13421 37-598, limits assumed)
[2] = biological target: T1, EGFR on tumor cells (MDA-MB-231, HeLa) (UniProt P00533)
[3] = biological target: T1, EGFR on tumor cells (MDA-MB-231, HeLa); remark: listed apart in the source

Row | Binder | TDCC EC50 (pM), MDA-MB-231 target cells, E:T 5 [1] | TDCC EC50 (pM), MDA-MB-231 target cells, E:T 5 [2] | TDCC EC50 (pM), HeLa target cells, E:T 10 [3]
1 | B1 | 0.009 pM |  | 
2 | B2 |  | 0.017 pM | 13 pM
3 | B3 |  | 0.018 pM | 9 pM
